Measured values taken from PubChem BioAssay AID1508642 (National Center for Advancing Translational Sciences (NCATS), 2021).
The campaign covered roughly 43,000 compounds. About 200 (0.47%) were called active. About 12% were inconclusive and are not listed. Calls follow the shape of the dose curve; as a rule, active = well fitted cell-killing curve with a large enough effect; inconclusive = small, poorly fitted or top-dose-only effect, or effect the other way; inactive = flat fitted curve, though single readings scatter. Some of the results follow.

Assay: Cell viability qHTS assay in S16 Pmp22-F2sN cells; also: nearly all actives have a fitted effect of over 65% in size
Details: S16 Pmp22-F2sN Schwann cells (luciferase reporters placed in the Pmp22 gene) viability, CellTiter-Glo, 24 h; series mostly up to 57.5 µM; activity change, negative = cytotoxicity: at the top concentration
In short: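 Rat S16 Schwann reporter line, 24 h treatment with library compounds delivered at 23 nL per well. Cell viability by CellTiter-Glo luminescence.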
% is scaled to controls: 0 for no effect and ±100 for the full control effect.

SMILES | activity change, negative = cytotoxicity
COc1cccc(CNC(=O)c2ccc(CS(=O)Cc3ccc(Cl)cc3)o2)c1 (stereo not given) | inactive: -13.2%
Cc1ccc(C(=O)CSc2nnc3ccc4ccccc4n23)cc1 | inactive: 7.21%
N#Cc1cc2c(=O)n3ccccc3nc2n(-c2nnc(SCc3ccccc3)s2)c1=O | inactive: 4.42%
O=C(Cc1ccc(F)cc1)NCCc1csc(-c2ccc(C(F)(F)F)cc2)n1 | inactive: -3.15%
CCOC(=O)c1cnc(NCc2ccc(Cl)cc2)c2ccccc12 | inactive: -0.68%
Cn1c(CN2CCCCC2)nc2cc(NC(=O)c3ccc(Cl)cc3)ccc21 | inactive: -6.56%
CCn1c(=O)cc(OCC(=O)Nc2ccccc2Cl)c2ccccc21 | inactive: 2.18%
CCN(CC)C(=O)c1ccccc1NC(=O)c1cccc(S(=O)(=O)N2CCC(C)CC2)c1 | inactive: 15.1%
Cc1c(C(=O)NCc2ccccc2)oc2c1-c1[nH]ncc1CC2 | inactive: -1.09%
CCOc1ccccc1C1Nc2ccccc2-c2nnc(SCc3ccccc3)nc2O1 (stereo not given) | inactive: -1.32%
COc1ccc(Br)cc1CNC(=O)c1ccc(-n2c(C)cc3c2CCC(C)C3)cc1 (stereo not given) | inactive: -25.8%
COCCCn1c(=N)c(C(=O)NC2CCCC2)cc2c(=O)n3cc(C)ccc3nc21 | inactive: 4.86%
Cc1cc(O)c(CN2CCN(c3ccc(F)cc3)CC2)c2oc(=O)cc(C)c12 | inactive: 10.8%
Cc1cccc(C(=O)Nc2nnc(S(=O)(=O)N3c4ccccc4CC3C)s2)c1 (stereo not given) | inactive: 2.4%
CCOc1ccc(-c2nnc(SCC(=O)NCCc3ccccc3)nc2-c2ccc(OCC)c(OC)c2)cc1OC | inactive: -2.68%
Cc1oc2ncnc(N3CCCCC3)c2c1C(=O)Nc1cccc(F)c1 | inactive: -11.7%
CCc1ccc(CNC(=O)c2sc3ncnc(N(C)C4CCCCC4)c3c2C)cc1 | inactive: 5.66%
COc1ccc(-c2cc(-c3ccc(F)cc3)nc3c2COc2ccccc2-3)cc1 | inactive: 13.2%
CCOc1ccc(OCC)c(NC(=O)c2c(C)nn(-c3ccccc3)c2-n2cccc2)c1 | inactive: -11.8%
COc1ccc(CCCc2nnc(SCC(=O)Nc3ccc(Cl)cc3)o2)cc1 | inactive: -0.528%
Cc1ccccc1CN1C(=O)C(O)(CC(=O)c2cccc(Br)c2)c2ccccc21 (stereo not given) | inactive: -23.8%
CCN(CC)C(=O)C1CCCN(c2ncnc3c2nc2n3CCCCC2)C1 (stereo not given) | inactive: -3.12%
COc1ccc(CCNC(=O)c2cc3c(=O)[nH]c4ccc(C)cc4c3s2)cc1OC | inactive: -0.78%
CCOC(=O)CNC(=O)Cn1nc(N2CCN(c3ccccc3)CC2)ccc1=O | inactive: 12.4%

SMILES | activity change, negative = cytotoxicity
CC(=O)c1cccc(NC(=O)c2cc(-c3ccc4c(c3)OCCO4)on2)c1 | inactive: 3.43%
COC(=O)c1ccccc1NC(=O)CCCS(=O)(=O)c1nc(-c2ccccc2OC)cc(C(F)(F)F)n1 | inactive: 6.92%
CCOc1ccccc1CNC(=O)CN1C(=O)C2CCCCN2c2ccc(C(=O)N(C)C)cc21 (stereo not given) | inactive: 5.01%
Cc1ccc(Cl)cc1N(C)C(=O)c1cc2ccc3cccnc3c2[nH]1 | inactive: -13.2%
CCNC(=O)CC1C(=O)N(c2ccc(F)cc2)C(=O)N1Cc1ccc(C)cc1 (stereo not given) | inactive: 10.6%
CCCCOc1ccc(C(=O)NCCc2csc3nc(-c4ccccc4F)nn23)cc1 | inactive: -13.8%
Cc1cc(NC(=O)CSc2ncc(C(=O)Nc3ccccc3)c(=O)n2C)no1 | inactive: 1.14%
O=C(NCc1ccccn1)c1nn(-c2ccccc2Cl)nc1CO | inactive: -3.12%
COc1ccccc1CNC(=O)C(Cc1ccccc1)NS(=O)(=O)c1ccc2c(c1)CCN2C(C)=O (stereo not given) | inactive: 0.556%
Cc1ccccc1NC(=O)c1ccc(CNS(=O)(=O)c2ccc3c(c2)C(C)(C)C(=O)N3C)cc1 | inactive: 0.128%
CSc1ncc(C(=O)Nc2cccc(Cl)c2C)c(-c2ccccc2)n1 | inactive: 2.09%
CCN(CC)C(=O)C1=C(C)Nc2nc3ccccc3n2C1c1ccc(Cl)cc1 (stereo not given) | inactive: 12.7%
CSc1ccc(CCNC(=O)c2ccc3c(c2)c(C)c(C)n3Cc2ccc(F)cc2)cc1 | inactive: -5.98%
CCn1c(CN2CCN(C)CC2)nc2cc(NC(=O)c3cc(OC)c(OC)c(OC)c3)ccc21 | inactive: -7.09%
CCOc1ccccc1C(=O)NCC(c1ccc(N(C)C)cc1)N1CCCC1 (stereo not given) | inactive: 5.84%
Cc1ccc(NC(=O)/C(C#N)=C\c2ccc(Cl)cc2Cl)cc1C | inactive: -1.13%
COc1ccc2c(c1)c1c(c(=O)n(CCc3ccccc3)c(=O)n1Cc1ccc(Cl)cc1)n2C | inactive: -1.71%
COc1cc(NC(=O)N2CCN(c3cc(-c4noc(C)n4)ccc3C)CC2)cc(OC)c1OC | inactive: 1.68%
CCOc1ccccc1NC(=O)N1CCN(S(=O)(=O)c2ccc3c(ccn3C)c2)CC1 | inactive: -2.35%
CC(C)c1ccccc1NC(=O)CSc1nnc(COc2ccccc2Cl)o1 | inactive: -12.9%
Cc1ccc(-c2ccc(CCC(=O)O)n2-c2ccc(C(C)C)cc2)cc1 | inactive: -0.17%
Nc1c(-c2nc(-c3ccccc3)no2)nnn1CC(=O)Nc1ccccc1 | inactive: 5.31%
COc1ccccc1CNC(=O)Cn1ncc2c(C)n(Cc3ccccc3Cl)c(C)c2c1=O | inactive: -1.42%
COC(=O)CSc1nnc2n(-c3ccccc3)c(=O)c3c4c(sc3n12)COC(C(C)C)C4 (stereo not given) | inactive: 3.34%

SMILES | activity change, negative = cytotoxicity
CCC(=O)N1CCc2cc(S(=O)(=O)N(C)c3cccc(C)c3)ccc21 | inactive: -7.26%
CCOc1ccccc1N(C)C(=O)Cn1nc(Cc2cccnc2)c2ccccc2c1=O | inactive: 18.1%
CCN(c1cc(C)cc(C)c1)S(=O)(=O)c1nnc(NC(=O)c2cccc(F)c2)s1 | inactive: -25.4%
CCOc1ccccc1N1CC(c2nc3ccccc3n2CCOc2ccc(C(C)(C)C)cc2)CC1=O (stereo not given) | inactive: 12.7%
Cc1ccccc1NC(=O)c1sc2nc(N3CCOCC3)c3c(c2c1N)CC(C)(C)OC3 | inactive: -8.86%
Cc1ccc(-n2ncc(C(=O)N3CCC(c4ccccc4)C3)c2C2CCN(C(=O)OC(C)(C)C)CC2)cc1 (stereo not given) | inactive: -6.57%
CCCCOc1ccc(CNC(=O)c2ccc(NC(=O)N3CCSc4ncccc43)cc2)cc1 | inactive: -22.5%
Cc1ccc(C)c(CN2C(=O)c3ccccc3S(=O)c3ccc(C(=O)N(C)Cc4ccccc4)cc32)c1 (stereo not given) | inactive: 4.34%
COC(=O)CCN(C(=O)c1c(C)oc2ncnc(N3CCOCC3)c12)c1ccccc1 | inactive: -3.45%
Cc1cccc(N2CCN(C(=O)C3CCN(S(=O)(=O)c4ccc5c(c4)oc(=O)n5C)CC3)CC2)c1C | inactive: -14.8%
Cc1cc(C)c2oc(C(=O)Nc3ccc(S(=O)(=O)N(C)c4ccccc4)cc3)cc(=O)c2c1 | inactive: 1.58%
O=c1c2c3c(sc2n(Cc2cc(=O)n4ccccc4n2)c(=O)n1-c1ccc(Cl)cc1)CCC3 | inactive: 0.735%
O=C(Nc1nc(-c2ccc(Br)cc2)ns1)c1ccccc1F | inactive: -0.662%
CC(=O)N1CCCc2cc(S(=O)(=O)N3CCCC(C(=O)Nc4ccc(C)c(C)c4)C3)ccc21 (stereo not given) | inactive: -4.79%
COc1cccc(-c2cnc(NCc3ccccc3Cl)n2C)c1 | inactive: -12.7%
Cc1ccc(C(=O)Nc2ccc3oc(-c4cccnc4)nc3c2)c(Cl)c1 | inactive: -3.01%
Cc1coc2cc3oc(=O)c(CC(=O)NCc4ccccc4)c(C)c3cc12 | inactive: -8.26%
CCOc1ccc2nc(N3CCC(C(=O)Nc4c(C)cccc4C)CC3)sc2c1 | inactive: -4.21%
Cc1ccc(C)c(N2CCN(C(=O)c3cc4c(=O)n(Cc5cccs5)ccc4nc3C)CC2)c1 | inactive: -16.5%
Cc1ccc(S(=O)(=O)Nc2cc3c(cc2Cl)n(C)c(=O)c(=O)n3C)cc1 | inactive: -3.85%
CCOC(=O)c1c(S(=O)(=O)NCC(=O)Nc2cc(C)ccc2OC)c(C)n(C)c1C | inactive: -2.58%
Cc1ccc(C(=O)OCc2cc(=O)n3nc(-c4cccs4)sc3n2)cc1 | inactive: 9.41%
COc1ccc(NC(=O)CSc2nc3ccccc3nc2Cc2ccc(C)cc2)cc1Cl | inactive: -15.3%
CCCCCn1c(=O)[nH]c2cc(C(=O)N3CCN(c4cc(Cl)ccc4C)CC3)ccc2c1=O | inactive: -0.429%

SMILES | activity change, negative = cytotoxicity
CCOc1ccc(CCn2c3c(c(=O)[nH]c2=O)C(NC(=O)c2ccccc2)(C(F)(F)F)C(=O)N3)cc1OCC (stereo not given) | inactive: 12.5%
CCOC(=O)N1CCC(NC(=O)c2ccc3c(c2)N(Cc2cc(C)ccc2C)C(=O)c2ccccc2S3(=O)=O)CC1 | inactive: -7.27%
Cc1nc(-c2ccccc2)sc1-c1ccc(SCC(=O)NCc2ccccc2)nn1 | inactive: 18%
O=C(Cn1cc(SCc2ccccc2F)c2ccccc21)N1CCCCCC1 | inactive: -13.6%
COc1ccccc1NC(=O)Cn1c(=O)n(Cc2cccs2)c(=O)c2cccnc21 | inactive: 8.71%
CCN(CC)c1ccc2cc(-c3nc(-c4ccc(Cl)cc4Cl)cs3)c(=O)oc2c1 | inactive: -3.88%
N#Cc1ccccc1NC(=O)CSc1ncn[nH]1 | inactive: 6.04%
COc1ccccc1C(=O)N1CCCCC1CCN1CCOCC1 (stereo not given) | inactive: 18.1%
O=C(Nc1ccc(-c2nc3cc(NC(=O)c4ccccc4F)ccc3o2)cc1)c1ccccc1F | inactive: 3.86%
Cc1cccc(C(=O)Nc2ccc(C(=O)OCc3cc(=O)n4c5c(sc4n3)CCCC5)cc2)c1 | inactive: -2.22%
CC(=O)c1ccc(NC(=O)c2ccc3c(c2)nnn3C2CCCC2)cc1 | inactive: 15.4%
CCOc1ccc(C(=O)CSc2nc3cc(C(=O)NC4CCCC4)ccc3c(=O)n2CC2CCCO2)cc1 (stereo not given) | inactive: 14.2%
Cc1ccc(C)c(NC(=O)c2nc(S(C)(=O)=O)ncc2N(Cc2ccc(C(C)(C)C)cc2)Cc2ccco2)c1 | inactive: 0.39%
CN1C(=O)Cc2cc(S(=O)(=O)N3CCN(c4cccc(C(F)(F)F)c4)CC3)ccc21 | inactive: -14.4%
CCOc1ccc(C(=O)c2cn(CC(=O)Nc3ccc4c(c3)OCCO4)c3ccc(OC)cc3c2=O)cc1 | inactive: 22%
O=C(NCc1ccccc1)c1cc2sccc2n1Cc1ccc(F)cc1 | inactive: -16.5%
Cn1c(=O)c2c(nc(Oc3ccc(F)cc3)n2Cc2ccc(F)cc2)n(C)c1=O | inactive: 8.88%
Cc1ccccc1CNC(=O)Cn1ccc2cc(S(=O)(=O)N3CCCCC3)ccc21 | inactive: 1.34%
COc1ccccc1NC(=O)c1sc2nc(C)c(C(=O)Nc3ccc(C)cc3C)c(-c3ccc(Br)cc3)c2c1N | inactive: 19.9%
COc1ccccc1C(=O)NCc1nnnn1-c1ccc(C)c(C)c1 | inactive: 7.15%
COc1ccc(-c2csc(-c3nc(-c4ccc(Br)s4)cs3)n2)cc1F | inactive: -1.98%
CCC1CCCCN1CCCNC(=O)c1c(O)nc2ccccn2c1=O (stereo not given) | inactive: -2.96%
COc1cccc(CN2C(=O)c3ccccc3Sc3ccc(C(=O)NCCc4ccc(C)cc4)cc32)c1 | inactive: 11.2%
